Activation data for 54 compounds are collected here from PubChem BioAssay AID1346428 (National Center for Advancing Translational Sciences (NCATS), 2018).

Several values for one entry are separate records, joined by “and”; a condition that tells them apart may be missing. Equal entries are not always repeated. About 1,200 (2.5%) of roughly 48,000 compounds were called active. Inconclusive results (about 2%) are left out.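 The calls were made as follows: active = activation of at least 60% and not above a set upper limit (about 1 call in 100 departs from these limits); inconclusive = activation of 40% to 60%, or above that upper limit; inactive = activation under 40%.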 This is one part of the list. More than one record can exist for a structure, and the calls need not agree.

UniProt O75388, sequence (O75388 whole entry, looked up): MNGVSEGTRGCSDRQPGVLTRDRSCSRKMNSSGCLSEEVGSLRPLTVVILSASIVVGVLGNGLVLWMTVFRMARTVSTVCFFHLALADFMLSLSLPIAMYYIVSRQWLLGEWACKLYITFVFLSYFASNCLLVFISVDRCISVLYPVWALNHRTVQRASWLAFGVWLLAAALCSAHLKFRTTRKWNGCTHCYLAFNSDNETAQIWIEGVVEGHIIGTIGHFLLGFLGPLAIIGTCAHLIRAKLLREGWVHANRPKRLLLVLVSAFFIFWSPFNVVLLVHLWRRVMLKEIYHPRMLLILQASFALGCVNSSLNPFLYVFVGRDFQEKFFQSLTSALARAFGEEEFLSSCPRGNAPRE

This experiment concerns the target Probable G-protein coupled receptor 32 (Homo sapiens) (UniProt O75388). Put plainly: qHTS for Agonists of Human Resolvin D1 Receptor DRV1. Also: 0% is about no effect. The conditions noted are these: CHO-K1 GPR32 beta-arrestin PathHunter luminescence, 90 min; at 76.9 µM; stronger effect = higher value; zero percent set by DMSO-only wells. Put shortly:
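Step 1: seed CHO-K1 GPR32 beta-arrestin cells, 2,500/well, overnight at 37 °C. Step 2: add compounds, 90 min at 37 °C. Step 3: detection reagent, 1 h ambient, then luminescence.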
(In qHTS, concentration-response curves come from the screen itself.)
Turning to `COc1ccc(NC(=O)CSc2nc3ccccc3n2Cc2cccc(OC)c2)cc1`, the activation was inactive: -17.6%.

As to `COc1ccc2c(CNCCc3ccco3)c(C(=O)O)n(Cc3ccccc3)c2c1`, the activation was inactive: -7.04%.

For the compound `COCCNC(=O)c1cccc(-n2c(C)nc3cccnc32)c1`, the activation was inactive: 3.29%.

As for `Cc1nc(-c2cccnc2)sc1CCNS(=O)(=O)c1ccc(F)cc1`, the activation is inactive: 2.39%.

Turning to `Cc1cc(S(=O)(=O)Nc2ccc(-c3ccc(N4CCCCCC4)nn3)cc2)c(C)cc1Cl`, the activation was inactive: 4.57%.

On to `CCc1sc(Nc2cccc(C)c2C)nc1-c1cc2cccc(OC)c2oc1=O`, for which the activation was inactive: -14.8%.

Consider `COc1ccc(-c2cc(C(F)(F)F)nc(SCC(=O)NCCc3ccccc3)n2)cc1OC`, for which the activation is inactive: -3.87%.

As to `Cc1ccc(NC(=O)c2cc(S(=O)(=O)N3CCc4ccccc43)ccc2F)cc1Cl`, the activation was inactive: -30.9%.

Turning to `COc1cc(OC)cc(-n2c(=O)c3sccc3n(Cc3c(C)cc(C)cc3C)c2=O)c1`, the activation was inactive: -3.58%.

With `CCC(C)NC(=O)c1nn(-c2ccc(C)cc2)c(=O)n(C)c1=O` (centres undefined), the activation is inactive: -6.83%.

Regarding `COc1ccc(-c2cc(C(F)(F)F)n3nc(C(=O)Nc4ccccc4SC)cc3n2)cc1OC`, the activation was inactive: -4.36%.

For `Cc1ccc(OCC(=O)N(Cc2ccco2)Cc2ccc(C)o2)cc1`, the activation was inactive: -12%.

Take `COc1cc2c(=O)n(CCC(=O)NCC3CCCO3)c(=O)n(CC(=O)Nc3ccc(C)c(C)c3)c2cc1OC` (centres undefined): the activation is inactive: -12%.

Turning to `CC(C)c1cccc(OCCn2c(-c3ccc(Cl)cc3)nc3ccccc3c2=O)c1`, the activation was inactive: -12.5%.

As to `COc1cccc(CCNC(=O)c2c(O)nc3ccccn3c2=O)c1`, the activation was inactive: 21.6%.

Take `COCCCNC(=O)C1CCN(c2nn3cc(-c4ccc(F)cc4)nc3s2)CC1`: the activation was inactive: -6.2%.

For the compound `CCOc1ccccc1NC(=O)c1cnn2c(C(F)F)cc(-c3ccccc3)nc12`, the activation is inactive: -8.13%.

Take `Cc1ccccc1C(=O)OCc1cc(=O)n2nc(-c3cccs3)sc2n1`: the activation was inactive: -0.0436%.

Regarding `CC1=C(C(=O)Nc2ccccc2)C(c2cccs2)n2nc(SCc3ccccc3F)nc2N1` (centres undefined), the activation was inactive: -2.87%.

As for `CN(C)CCN(Cc1ccco1)C(=O)c1oc2ccccc2c1NC(=O)c1ccccc1`, the activation is inactive: 33.1%.

With `Cc1ccc(C)c(NC(=O)c2cc(S(=O)(=O)N3CCCCCC3)ccc2F)c1`, the activation was inactive: -14.6%.

Take `Cc1ccc(NC(=O)c2oc3ccc(S(=O)(=O)N4CCCCC4)cc3c2C)c(C)c1`: the activation was inactive: -7.44%.

On to `CCCCCCc1cc2cc(-c3nnc(-c4cccc(Cl)c4)o3)c(=O)oc2cc1O`, for which the activation is inactive: -2.5%.

For the compound `Cc1cc(C)c(NC(=O)CN2C(=O)C3(SCC(=O)N3c3ccc(F)cc3)c3ccccc32)c(C)c1` (centres undefined), the activation is inactive: -4.01%.

With `Cc1cc(C)c(NC(=O)c2c(C)oc3c2C2=NCCN2C=N3)c(C)c1`, the activation was inactive: -21.9%.

For `Cc1cccc(N2CCN(C(=O)C(C)n3nc(C)n4c(cc5occc54)c3=O)CC2)c1C` (centres undefined), the activation was inactive: -5.47%.

For the compound `O=c1c(O)c(-c2ccc(O)c(O)c2)oc2cc(O)cc(O)c12`, the activation is active: 109% and inactive: 10.2%.

As for `CCN(CC)S(=O)(=O)c1ccc(-c2csc(=Nc3cccc(C(F)(F)F)c3)n2Cc2ccc3c(c2)OCO3)cc1`, the activation is inactive: 16.4%.

`COc1ccc(C2c3c(n(C)c4ccccc34)C(=O)N2CC(=O)Nc2ccc(C)cc2Cl)cc1` (centres undefined): the activation is inactive: -15.6%.

With `CN(C)c1ccc(CNC(=O)C2CCN(S(=O)(=O)c3ccc4c(c3)oc(=O)n4C)CC2)cc1`, the activation was inactive: 11.7%.

As for `COc1cccc(NC(=O)Cn2c(=O)n(Cc3ccc(C(=O)NCc4ccc5c(c4)OCO5)cc3)c(=O)c3ccccc32)c1`, the activation was inactive: 6.05%.

On to `Cc1ccc(S(=O)(=O)N2CCCc3cc(NS(=O)(=O)c4ccc(F)cc4)ccc32)cc1`, for which the activation was inactive: -31.1%.

In the case of `CCc1ccc(-c2cc(C)no2)cc1S(=O)(=O)NCc1ccco1`, the activation is inactive: -13.1%.

As to `CCC(Oc1ccc(F)cc1)C(=O)Nc1nc2c(s1)CCCC2` (centres undefined), the activation was inactive: -18.4%.

Turning to `COc1ccc(C(=O)N2c3nc(-c4ccco4)nn3C3(CCCCC3)[C@@H]3CCCC[C@@H]32)cc1OC`, the activation is inactive: -25.9%.

As to `O=C(NC1CCCCC1)c1ccc(Cn2c(SCc3ccccc3)nc3cccnc32)cc1`, the activation is inactive: -4.66%.

For `Cc1cccc(C(=O)N2CCCCC2CCN2CCCCC2)c1` (centres undefined), the activation is inactive: -1.36%.

For the compound `O=C(Nc1ccc(F)cc1)c1oc2ccccc2c1NC(=O)C1CCCCC1`, the activation is inactive: -4.84%.

As for `CC(=O)Nc1cccc(O)c1`, the activation is inactive: 3.89%.

`Cc1ccccc1Cn1nnc2sc3c(c2c1=O)CCCC3`: the activation is inactive: -19.5%.

As for `CCOC(=O)c1c(NC(=O)Nc2ccc(F)cc2)sc(C(=O)N(C)C)c1C`, the activation was inactive: -9.7%.

As to `CCOC(=O)c1cc2c(=O)n3ccccc3nc2n(CC2CCCO2)c1=NC(=O)c1cccc(C)c1` (centres undefined), the activation was inactive: -2.21%.

For `O=C(COc1ccccc1F)Nc1nnc(SCc2cc(=O)n3ccccc3n2)s1`, the activation was inactive: -4.33%.

For the compound `COc1ccc(CCNC(=O)c2ccc3c(c2)N(Cc2ccccc2Cl)C(=O)c2ccccc2S3)cc1OC`, the activation was inactive: -18.5%.

In the case of `CCc1nc2ccc(C(=O)NCc3ccccc3C)cc2nc1CC`, the activation was inactive: -23.8%.

Consider `CN=C(N)NC(=O)Nc1c(C)cccc1C`, for which the activation is inactive: 0.887%.

`COc1ccc(-n2cc(-c3ccccc3)c3c(N4CCCC(C)C4)ncnc32)cc1` (centres undefined): the activation is inactive: -8.1%.

As to `O=c1c(NCc2cccs2)nccn1-c1ccccc1`, the activation was inactive: 7.27%.

In the case of `COc1ccc(-c2cccc(NS(=O)(=O)c3cc(C(F)(F)F)ccc3Cl)c2)nn1`, the activation is inactive: 41.4%.

As for `Cn1cc(CCCC(=O)NCc2cccc(Br)c2)c2ccccc21`, the activation was inactive: -33%.

`COc1ccc(C(=O)NCCc2csc(-c3ccc(Cl)cc3)n2)cc1`: the activation was active: 86.6%.

`O=C(CS(=O)(=O)c1cccc2nsnc12)NCc1ccccc1Cl`: the activation is inactive: 1.51%.

As to `Cc1ccc(CN2c3ccccc3-c3nc(SCC(=O)NCc4ccccc4)ncc3S2(=O)=O)cc1`, the activation was inactive: -1.77%.

Consider `CCC(=O)C1=C(c2ccccc2)N(C(=O)CC)n2c(nnc2-c2ccccc2)S1`, for which the activation is inactive: -12.7%.
